The campaign covered roughly 360,000 compounds. About 7,500 (2.1%) were called active. Inconclusive results, whose numbers are uncertain, are shown with a selection of clear calls. The call rests on the fitted dose curve; in most records, active means well fitted cell-killing curve with a large enough effect; inconclusive means small, poorly fitted or top-dose-only effect, or effect the other way, or another doubt; inactive means no such curve, though single readings can be large or run the other way. No potency is given beside an inconclusive call; the fits are too rough.
assay: qHTS for induction of synthetic lethality in tumor cells producing 2HG: qHTS for the HT-1080-IDH1KD cell line; conditions: HT-1080 IDH1 knockdown viability, ATP luminescence, 48 h; activity, negative = toxicity: at 46.1 µM (top of the series) unless noted;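 on activity, negative = toxicity: 0% = DMSO wells and -100% = cell-free medium wells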
How it was run: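 Luminescent ATP read-out (CellTiter-Glo, 10 min at room temperature) after 48 h compound exposure at 37 °C gave viability of IDH1-knockdown HT-1080 cells. Activity was normalised to DMSO and cell-free wells, then fitted as concentration-response curves.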
Potency means the concentration at half of the fitted maximal effect; tags describe the fitted curve by direction and shape.

Structure (SMILES) | activity, negative = toxicity | Potency
Cc1ccc(S(=O)c2ccc(NC(=O)C3CC3)cc2C#N)cc1 (stereo not given) | inactive: -21.6% | –
O=C(NCc1ccc(Cl)c(Cl)c1)c1cc(C2CCCCN2C(=O)OCCF)on1 (stereo not given) | – | inconclusive [cytotoxic, single point]
CCOc1c(Cl)cc(CNC(C)(C)CC(C)(C)C)cc1OC | – | inconclusive [cytotoxic, single point]
CC(=O)OC(C)(C)C#CCN1CCCC1 | – | inconclusive [cytotoxic, single point]
CC1(C(=O)NCc2cccs2)Cc2c(-c3ccc4c(c3)OCO4)ccnc2O1 (stereo not given) | – | inconclusive [cytotoxic, full curve]
COc1cc(C(=O)N[C@H](C(=O)NC(C)C23CC4CC(CC(C4)C2)C3)C(C)C)cc(OC)c1OC (stereo not given in full) | – | inconclusive [cytotoxic, single point]
CCCCSc1nc(C)cc(SCC(=O)N/N=C/c2cccc(OC)c2O)n1 | – | inconclusive [cytotoxic, partial curve]
N#Cc1ccccc1NS(=O)(=O)c1cc2c3c(c1)CCN3C(=O)CC2 | inactive: -2.19% | –
Cc1nnsc1C(=O)N/N=C/c1ccc2ccccc2c1O | – | active: 3.66 µM
Cc1cc2ccccn2c1C(=O)c1cc([N+](=O)[O-])cc([N+](=O)[O-])c1 | inactive: -1.54% | –
O=[N+]([O-])c1cc(C(F)(F)F)cc([N+](=O)[O-])c1NCCNC(=S)Nc1ccc(Cl)c(Cl)c1 | – | inconclusive [cytotoxic, single point]
CCOC(=O)C1=C(C)N=c2s/c(=C\c3ccc(OCC(=O)O)c(OC)c3)c(=O)n2C1c1ccc(OC)cc1 (stereo not given) | inactive: 1.73% | –
Cc1ccc2nc(SCC(=O)Nc3ccccc3N3CCOCC3)c(C#N)cc2c1 | – | inconclusive [cytotoxic, partial curve]
CNc1cc(CSC)nc(SCc2ccc(Cl)cc2Cl)n1 | – | inconclusive [cytotoxic, single point]
CC(C)C(=O)NC(c1ccccc1)c1cc([N+](=O)[O-])c2cccnc2c1O (stereo not given) | – | active: 16.4 µM
COc1ccc(/C=C2/SC(=S)N(n3c(C)ccc3C)C2=O)cc1 | inactive: -0.793% | –
Nc1c(Cl)ncnc1N/N=C/c1ccc2ccccc2n1 | – | inconclusive [cytotoxic, full curve]
CCCCN(CC)Cc1ccc(CNC(=O)Nc2ccccc2)o1 | – | active: 14.1 µM
Cc1nnc2nc(-c3ccccc3)nc(-c3ccccc3)n12 | inactive: 13.7% | –
COc1ccc(CNC(=O)c2ccc(-c3ccccc3)cc2)cc1OC | – | inconclusive [cytotoxic, single point]
O=C(CNC(=O)c1ccc2c(c1)OCCO2)N/N=C/c1ccc(O)cc1O | – | inconclusive [cytotoxic, single point]
CCN(CC)c1ccc(C(NC(=O)C(C)C)c2ccc3cccnc3c2O)cc1 (stereo not given) | – | inconclusive [cytotoxic, full curve]
NC(Cc1ccc(C(F)(F)F)cc1)c1csc(NC(=O)Nc2ccccc2)n1 (stereo not given) | – | active: 16.4 µM
OCC1OC(n2ccc3c2ncn2ncnc32)C(O)C1O (stereo not given) | – | active: 0.651 µM
O=C(NCC(c1ccco1)N1CCN(c2ccccc2)CC1)C(=O)NC1CCCCC1 (stereo not given) | inactive: -0.385% | –

Structure (SMILES) | activity, negative = toxicity | Potency
CCN(c1ccccc1)S(=O)(=O)c1cccc(C(=O)OCC(=O)Nc2ccc(NC(C)=O)cc2)c1 | inactive: 3.65% | –
COc1ccc(CCC(=O)Nc2ccc(OC)c(S(=O)(=O)N3CCCCC3)c2)cc1OC | inactive: -20.5% | –
COc1cc(OC)cc(C2=Cc3ccc(OC)cc3C(CC(C)=O)N2c2ccc(-c3cncnc3)cc2)c1 (stereo not given) | inactive: -8.35% | –
COc1cccc(C2=NOC(C(=O)NCc3ccccc3)C2)c1 (stereo not given) | – | inconclusive [cytotoxic, partial curve]
CCC(C)Sc1nc2c(c(=O)[nH]c(=O)n2C)n1CCc1ccccc1 (stereo not given) | inactive: -0.0535% | –
COc1cccc(N(C(=O)c2nc3nccc(C)n3n2)c2nc3ccccc3s2)c1 | – | inconclusive [cytotoxic, single point]
COc1ccc2nc3sc(C(=O)NCCN4CCc5ccccc5C4)cc3cc2c1 | inactive: 1.14% | –
O=C1CN(C(=O)c2ccc(Cl)c(S(=O)(=O)N3CCc4ccccc43)c2)c2ccccc2N1 | – | inconclusive [cytotoxic, partial curve]
NS(=O)(=O)c1ccc(CNC(=O)c2cc(S(=O)(=O)N3CCOCC3)ccc2N2CCCC2)cc1 | inactive: -0.265% | –
CC(C)[n+]1ccn(C2=C([O-])c3ccccc3C(=O)/C2=N\S(=O)(=O)c2ccccc2)c1 | – | active: 23.1 µM
Oc1ccc(/C=N/Nc2nc(N3CCCCCC3)nc(N3CCCCCC3)n2)c(O)c1 | – | inconclusive [cytotoxic, single point]
C[C@@]12C(=O)N(CC3CCCO3)CC(=O)N1[C@H]1c3ccccc3OC[C@@H]1[C@@H]2c1ccccc1 (stereo not given in full) | inactive: 0.623% | –
CC1=C(C(=O)N(C)C)CC(CC(=O)NC2CCCC2)C(=O)N1Cc1ccccc1 (stereo not given) | inactive: 0.934% | –
C#CCNC(=O)C[C@@H]1C[C@@]2(C(=O)OC)CC(C)(C)CC=C2N(Cc2cccc3ccccc23)C1=O | – | inconclusive [cytotoxic, single point]
O=C1OCC2=C1C(c1ccc(F)cc1)c1cc3c(cc1N2)OCCO3 (stereo not given) | – | active: 0.184 µM
CCN1CCN(C(=O)COCc2cc(-c3ccc4c(c3)OCO4)on2)CC1 | inactive: -7.39% | –
CC(C)(C)C1CCc2c(sc3nc(SCC(=O)O)nc(N)c23)C1 (stereo not given) | – | inconclusive [cytotoxic, partial curve]
C=CCc1cccc(/C=N/NC(=O)c2ccccc2OC)c1O | – | active: 16.4 µM
CCc1ccc(Nc2nc(N)nc(CSc3nc4ccccc4s3)n2)cc1 | inactive: 3.49% | –
Cc1ccsc1C(=O)N1CCC1(C)C(=O)Nc1ccc2c(c1)OCCO2 (stereo not given) | inactive: 1.2% | –
N#Cc1ccc(-c2nc3c4ccccc4ccn3c2Cc2ccsc2)cc1 | inactive: -9.71% | –
N#CC1=C(N)N(c2ccccc2)C(c2cccc([N+](=O)[O-])c2)C1(C#N)C#N (stereo not given) | inactive: -2.99% | –
Cc1cc(C)[n+]2n1C(=O)C(c1ccccc1)=C2[O-] | – | inactive
COc1ccc(/C=N/Nc2cc(C)nc(NS(=O)(=O)c3ccc(C)cc3)n2)cc1 | – | inconclusive [cytotoxic, single point]
Cc1ccccc1CS(=O)(=O)c1ncc(Cl)c(C(=O)Nc2ccc(F)cc2)n1 | – | inconclusive [cytotoxic, single point]

Structure (SMILES) | activity, negative = toxicity | Potency
CC(C)N(C(=O)Nc1ccc2nsnc2c1)C(C)C | – | inconclusive [cytotoxic, single point]
Cc1ccc(-c2cc(C(=O)NCCN3CCOCC3)c3ccccc3n2)o1 | inactive: 0.954% | –
Cc1ccc(Cc2c(-c3ccc(F)cc3)nc3c(C)cc(Br)cn23)cc1 | – | inconclusive [cytotoxic, single point]
CC1C/C(=C/c2ccncc2)C(=O)/C(=C/c2ccncc2)C1 (stereo not given) | – | active: 3.66 µM
COc1cc(/C=C(/C#N)c2ccc(F)cc2)ccc1Oc1ccc([N+](=O)[O-])cn1 | – | inconclusive [cytotoxic, single point]
CCCCc1ccc(NC(=O)CSC2=NN3CCCC(=O)N=C3S2)cc1 | inconclusive: -24.4% [cytotoxic] | –
O=S1(=O)CCC(NC(=S)SCc2ccccc2Br)C1 (stereo not given) | – | inconclusive [cytotoxic, single point]
O=S(=O)(Nc1ccc(N=Nc2ccc(O)c3ccccc23)cc1)c1ccccc1 | – | inconclusive [cytotoxic, single point]
COCCNC(=O)c1cc(-c2ccccc2OC)on1 | inactive: -24.2% | –
CC(=O)Oc1ccc(OC(C)=O)c(SCCCCCCl)c1 | – | inconclusive [cytotoxic, partial curve]
O=c1oc2cc(OCCO)ccc2c2c1CCCC2 | inactive: 15% | –
O=[N+]([O-])c1cc(C(F)(F)F)ccc1NCCCCNS(=O)(=O)c1ccc2ccccc2c1 | – | inconclusive [cytotoxic, single point]
O=C(NC(NC(=S)Nc1c(Cl)cccc1Cl)C(Cl)(Cl)Cl)OCc1ccccc1 (stereo not given) | – | inconclusive [cytotoxic, single point]
Cc1ccc(S(=O)(=O)Nc2cc(=O)[nH]c3c2CCC3)cc1 | inconclusive: 30.5% | –
C=CCOc1ccc(CNn2cn[nH]c2=S)cc1OCC | – | inconclusive [cytotoxic, single point]
COc1ccccc1NS(=O)(=O)c1cc(-c2cnc(C3CC3)o2)ccc1C | – | inconclusive [cytotoxic, single point]
COc1ccc(CNCc2ccc(C)cc2)c(OC)c1 | inactive: -23.2% | –
Cc1ccc(NS(=O)(=O)c2ccc(N3CCN(c4ccc(O)cc4)CC3)c([N+](=O)[O-])c2)c(C)c1 | – | inconclusive [cytotoxic, single point]
Cc1ccc(O)c(N=Nc2ccccc2)n1 | inactive: -6.54% | –
Cc1nn(Cc2ccccc2)c(C)c1NC(=O)c1cccs1 | inconclusive: -35.6% [cytotoxic] | –
Nc1cccc(/C=C/C(=O)O)c1 | – | inconclusive [rising, partial curve]
O=C(NC1CCCC1)c1cnn2c(C(F)(F)F)cc(-c3ccco3)nc12 | – | inconclusive [cytotoxic, single point]
Cc1ccc2nc(-c3ccc(NS(=O)(=O)c4ccc(F)cc4)cc3)sc2c1 | – | inconclusive [cytotoxic, single point]
N#CC[n+]1cc(-c2ccc(Cl)cc2)n2c1CCC2 | inactive: 4.43% | –
COc1ccc(NCc2nnc(SCC(=O)c3ccc(OC)cc3)o2)cc1 | – | inconclusive [cytotoxic, single point]
